# According to the supplement of paper PMC8728848:
# The list shows a part of the results.
# B1: Thrombomodulin (Mus musculus) (protein)
# chain: ALAKLQPTGSQCVEHECFALFQGPATFLDASQACQRLQGHLMTVRSSVAADVISLLLSQSSMDLGPWIGLQLPQGCDDPVHLGPLRGFQWVTGDNHTSYSRWARPNDQTAPLCGPLCVTVSTATEAAPGEPAWEEKPCETETQGFLCEFYFTASC
# Legend:
# Assay in all cases: glycan array binding signal (z-score within array); higher = stronger binding
# Conditions in all cases: glycan notation: IUPAC condensed, linker removed
# Neu5Ac(a2-8)Neu5Ac = molecular target: Neu5Ac(a2-8)Neu5Ac
# Method in brief: (§1)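 Glycan array data came from 3228 arrays in the Consortium for Functional Glycomics database, and only arrays with an available protein sequence were kept. Glycan names were put into IUPAC-condensed notation, and columns mapping to the same glycan were averaged. The binding signal is a within-array Z-score, averaged across arrays of one protein sequence run at different concentrations or buffers and across linkers. A negative Z-score can be read as non-binding.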
# [1] = molecular target: Neu5Ac(a2-8)Neu5Ac(a2-3)Gal(b1-3)GalNAc(b1-4)[Neu5Ac(a2-3)]Gal(b1-4)Glc
# Method in brief: as §1
# [2] = molecular target: Neu5Ac(a2-8)Neu5Ac(a2-3)Gal(b1-3)GalNAc(b1-4)[Neu5Ac(a2-8)Neu5Ac(a2-3)]Gal(b1-4)Glc
# Method in brief: as §1
# [3] = molecular target: Neu5Ac(a2-8)Neu5Ac(a2-3)Gal(b1-4)Glc
# Method in brief: as §1
# [4] = molecular target: Neu5Ac(a2-8)Neu5Ac(a2-3)Gal(b1-4)GlcNAc
# Method in brief: as §1
# [5] = molecular target: Neu5Ac(a2-8)Neu5Ac(a2-3)[Gal(b1-3)GalNAc(b1-4)]Gal(b1-4)Glc
# Method in brief: as §1
# [6] = molecular target: Neu5Ac(a2-8)Neu5Ac(a2-3)[GalNAc(b1-4)]Gal(b1-4)Glc
# Method in brief: as §1
# [7] = molecular target: Neu5Ac(a2-8)Neu5Ac(a2-8)Neu5Ac
# Method in brief: as §1
# [8] = molecular target: Neu5Ac(a2-8)Neu5Ac(a2-8)Neu5Ac(a2-3)Gal(b1-4)Glc
# Method in brief: as §1
# [9] = molecular target: Neu5Ac(a2-8)Neu5Ac(a2-8)Neu5Ac(a2-3)[Gal(b1-3)GalNAc(b1-4)]Gal(b1-4)Glc
# Method in brief: as §1
# [10] = molecular target: Neu5Ac(a2-8)Neu5Ac(a2-8)Neu5Ac(a2-3)[GalNAc(b1-4)]Gal(b1-4)Glc
# Method in brief: as §1
# [11] = molecular target: Neu5Ac(a2-8)Neu5Ac(a2-8)Neu5Ac(a2-8)Neu5Ac(a2-3)[GalNAc(b1-4)]Gal(b1-4)Glc
# Method in brief: as §1
# [12] = molecular target: Neu5Ac(a2-8)Neu5Gc(a2-3)Gal(b1-4)GlcNAc
# Method in brief: as §1
# [13] = molecular target: Neu5Ac(b2-6)Gal(b1-4)GlcNAc
# Method in brief: as §1
# Neu5Ac(b2-6)GalNAc = molecular target: Neu5Ac(b2-6)GalNAc
# Method in brief: as §1
# [14] = molecular target: Neu5Ac9Ac(a2-3)Gal(b1-3)GlcNAc
# Method in brief: as §1
# [15] = molecular target: Neu5Ac9Ac(a2-3)Gal(b1-4)GlcNAc
# Method in brief: as §1
# [16] = molecular target: Neu5Ac9Ac(a2-6)Gal(b1-4)GlcNAc
# Method in brief: as §1
# [17] = molecular target: Neu5Gc(a2-3)Gal(b1-3)GlcNAc
# Method in brief: as §1
# [18] = molecular target: Neu5Gc(a2-3)Gal(b1-3)[Fuc(a1-4)]GlcNAc
# Method in brief: as §1
# Neu5Gc(a2-3)Gal(b1-4)Glc = molecular target: Neu5Gc(a2-3)Gal(b1-4)Glc
# Method in brief: as §1
# [19] = molecular target: Neu5Gc(a2-3)Gal(b1-4)GlcNAc
# Method in brief: as §1
# [20] = molecular target: Neu5Gc(a2-3)Gal(b1-4)GlcNAc(b1-3)Gal(b1-4)GlcNAc(b1-2)Man(a1-3)[Neu5Gc(a2-3)Gal(b1-4)GlcNAc(b1-3)Gal(b1-4)GlcNAc(b1-2)Man(a1-6)]Man(b1-4)GlcNAc(b1-4)GlcNAc
# Method in brief: as §1
# [21] = molecular target: Neu5Gc(a2-3)Gal(b1-4)[Fuc(a1-3)]GlcNAc
# Method in brief: as §1
# [22] = molecular target: Neu5Gc(a2-6)Gal(b1-4)GlcNAc
# Method in brief: as §1
# Neu5Gc(a2-6)GalNAc = molecular target: Neu5Gc(a2-6)GalNAc
# Method in brief: as §1
# [23] = molecular target: Neu5Gc(a2-8)Neu5Ac(a2-3)Gal(b1-4)GlcNAc
# Method in brief: as §1
# [24] = molecular target: Neu5Gc(a2-8)Neu5Gc(a2-3)Gal(b1-4)GlcNAc
# Method in brief: as §1
# [25] = molecular target: Neu5Gc(a2-8)Neu5Gc(a2-3)Gal(b1-4)GlcNAc(b1-3)Gal(b1-4)GlcNAc
# Method in brief: as §1
# [26] = molecular target: Neu5Gc(a2-8)Neu5Gc(a2-6)Gal(b1-4)GlcNAc
# Method in brief: as §1
# [27] = molecular target: Neu5Gc(b2-6)Gal(b1-4)GlcNAc
# Method in brief: as §1
binder,measurement,setting,value
B1,glycan array binding signal (z-score),Neu5Ac(a2-8)Neu5Ac,0.118
same,glycan array binding signal (z-score),[1],-0.369
same,glycan array binding signal (z-score),[2],-0.021
same,glycan array binding signal (z-score),[3],-0.266
same,glycan array binding signal (z-score),[4],-0.54
same,glycan array binding signal (z-score),[5],0.188
same,glycan array binding signal (z-score),[6],-0.063
same,glycan array binding signal (z-score),[7],-0.27
same,glycan array binding signal (z-score),[8],-0.108
same,glycan array binding signal (z-score),[9],0.169
same,glycan array binding signal (z-score),[10],-0.302
same,glycan array binding signal (z-score),[11],0.028
same,glycan array binding signal (z-score),[12],-0.404
same,glycan array binding signal (z-score),[13],-0.139
same,glycan array binding signal (z-score),Neu5Ac(b2-6)GalNAc,-0.216
same,glycan array binding signal (z-score),[14],-0.212
same,glycan array binding signal (z-score),[15],0.1
same,glycan array binding signal (z-score),[16],0.153
same,glycan array binding signal (z-score),[17],-0.302
same,glycan array binding signal (z-score),[18],0.081
same,glycan array binding signal (z-score),Neu5Gc(a2-3)Gal(b1-4)Glc,-0.117
same,glycan array binding signal (z-score),[19],-0.133
same,glycan array binding signal (z-score),[20],-0.161
same,glycan array binding signal (z-score),[21],-0.057
same,glycan array binding signal (z-score),[22],-0.077
same,glycan array binding signal (z-score),Neu5Gc(a2-6)GalNAc,-0.326
same,glycan array binding signal (z-score),[23],-0.082
same,glycan array binding signal (z-score),[24],-0.438
same,glycan array binding signal (z-score),[25],-0.516
same,glycan array binding signal (z-score),[26],-0.048
same,glycan array binding signal (z-score),[27],0.042
